Results: the supplement of paper PMC8728848
The other results are listed elsewhere or left out.

Experiments:
Assay in all cases: glycan array binding signal (z-score within array); higher = stronger binding
Conditions in all cases: glycan notation: IUPAC condensed, linker removed; mutation: D109R
[1] = biological target: Fuc(a1-2)Gal(b1-4)[Fuc(a1-3)]GlcNAc
In short: (§1)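 Glycan array binding is given as a within-array Z-score, which can be read as non-binding when negative. The arrays, 3228 of them, came from the Consortium for Functional Glycomics database and were retained only where the protein sequence was available. Z-scores were averaged across arrays of the same protein sequence at different concentrations or buffers and across linkers.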

[2] = biological target: Fuc(a1-2)Gal(b1-4)[Fuc(a1-3)]GlcNAc(b1-2)Man(a1-3)[Fuc(a1-2)Gal(b1-4)[Fuc(a1-3)]GlcNAc(b1-2)Man(a1-6)]Man(b1-4)GlcNAc(b1-4)[Fuc(a1-6)]GlcNAc
In short: as §1

[3] = biological target: Fuc(a1-2)Gal(b1-4)[Fuc(a1-3)]GlcNAc(b1-2)[Fuc(a1-2)Gal(b1-4)[Fuc(a1-3)]GlcNAc(b1-4)]Man(a1-3)[Fuc(a1-2)Gal(b1-4)[Fuc(a1-3)]GlcNAc(b1-2)Man(a1-6)]Man(b1-4)GlcNAc(b1-4)GlcNAc
In short: as §1

[4] = biological target: Fuc(a1-2)Gal(b1-4)[Fuc(a1-3)]GlcNAc(b1-3)Gal(b1-4)[Fuc(a1-3)]GlcNAc
In short: as §1

[5] = biological target: Fuc(a1-2)Gal(b1-4)[Fuc(a1-3)]GlcNAc(b1-3)Gal(b1-4)[Fuc(a1-3)]GlcNAc(b1-3)Gal(b1-4)[Fuc(a1-3)]GlcNAc
In short: as §1

[6] = biological target: Fuc(a1-2)Gal(b1-4)[Fuc(a1-3)]GlcNAc(b1-3)GalNAc
In short: as §1

[7] = biological target: Fuc(a1-2)Gal(b1-4)[Fuc(a1-3)]GlcNAc(b1-3)[Neu5Ac(a2-6)Gal(b1-4)GlcNAc(b1-6)]Gal(b1-4)Glc
In short: as §1

[8] = biological target: Fuc(a1-2)Gal3S(b1-4)GlcNAc
In short: as §1

[9] = biological target: Fuc(a1-2)Gal6S(b1-3)GlcNAc
In short: as §1

[10] = biological target: Fuc(a1-2)Gal6S(b1-3)GlcNAc6S
In short: as §1

[11] = biological target: Fuc(a1-2)Gal6S(b1-4)Glc
In short: as §1

[12] = biological target: Fuc(a1-2)Gal6S(b1-4)Glc6S
In short: as §1

[13] = biological target: Fuc(a1-2)[Gal(a1-3)]Gal
In short: as §1

[14] = biological target: Fuc(a1-2)[Gal(a1-3)]Gal(b1-3)GalNAc
In short: as §1

[15] = biological target: Fuc(a1-2)[Gal(a1-3)]Gal(b1-3)GalNAc(b1-3)Gal(a1-4)Gal(b1-4)Glc
In short: as §1

[16] = biological target: Fuc(a1-2)[Gal(a1-3)]Gal(b1-3)GlcNAc
In short: as §1

[17] = biological target: Fuc(a1-2)[Gal(a1-3)]Gal(b1-3)GlcNAc(b1-2)Man(a1-3)[Fuc(a1-2)[Gal(a1-3)]Gal(b1-3)GlcNAc(b1-2)Man(a1-6)]Man(b1-4)GlcNAc(b1-4)GlcNAc
In short: as §1

[18] = biological target: Fuc(a1-2)[Gal(a1-3)]Gal(b1-3)GlcNAc(b1-2)Man(a1-3)[Fuc(a1-2)[Gal(a1-3)]Gal(b1-3)GlcNAc(b1-2)Man(a1-6)]Man(b1-4)GlcNAc(b1-4)[Fuc(a1-6)]GlcNAc
In short: as §1

[19] = biological target: Fuc(a1-2)[Gal(a1-3)]Gal(b1-3)GlcNAc(b1-3)GalNAc
In short: as §1

[20] = biological target: Fuc(a1-2)[Gal(a1-3)]Gal(b1-3)GlcNAc(b1-6)GalNAc
In short: as §1

[21] = biological target: Fuc(a1-2)[Gal(a1-3)]Gal(b1-4)Glc
In short: as §1

[22] = biological target: Fuc(a1-2)[Gal(a1-3)]Gal(b1-4)GlcNAc
In short: as §1

[23] = biological target: Fuc(a1-2)[Gal(a1-3)]Gal(b1-4)GlcNAc(b1-2)Man
In short: as §1

[24] = biological target: Fuc(a1-2)[Gal(a1-3)]Gal(b1-4)GlcNAc(b1-2)Man(a1-3)[Fuc(a1-2)[Gal(a1-3)]Gal(b1-4)GlcNAc(b1-2)Man(a1-6)]Man(b1-4)GlcNAc(b1-4)GlcNAc
In short: as §1

[25] = biological target: Fuc(a1-2)[Gal(a1-3)]Gal(b1-4)GlcNAc(b1-2)Man(a1-3)[Fuc(a1-2)[Gal(a1-3)]Gal(b1-4)GlcNAc(b1-2)Man(a1-6)]Man(b1-4)GlcNAc(b1-4)[Fuc(a1-6)]GlcNAc
In short: as §1

[26] = biological target: Fuc(a1-2)[Gal(a1-3)]Gal(b1-4)GlcNAc(b1-3)GalNAc
In short: as §1

[27] = biological target: Fuc(a1-2)[Gal(a1-3)]Gal(b1-4)GlcNAc(b1-3)[Fuc(a1-2)[Gal(a1-3)]Gal(b1-4)GlcNAc(b1-6)]GalNAc
In short: as §1

[28] = biological target: Fuc(a1-2)[Gal(a1-3)]Gal(b1-4)GlcNAc(b1-6)GalNAc
In short: as §1

[29] = biological target: Fuc(a1-2)[Gal(a1-3)]Gal(b1-4)[Fuc(a1-3)]Glc
In short: as §1

[30] = biological target: Fuc(a1-2)[Gal(a1-3)]Gal(b1-4)[Fuc(a1-3)]GlcNAc
In short: as §1

[31] = biological target: Fuc(a1-2)[Gal(a1-3)]Gal(b1-4)[Fuc(a1-3)]GlcNAc(b1-3)GalNAc
In short: as §1

[32] = biological target: Fuc(a1-2)[Gal(a1-4)]Gal(b1-4)GlcNAc
In short: as §1

[33] = biological target: Fuc(a1-2)[GalNAc(a1-3)]Gal
In short: as §1

[34] = biological target: Fuc(a1-2)[GalNAc(a1-3)]Gal(b1-3)GalNAc(a1-3)[Fuc(a1-2)]Gal(b1-4)GlcNAc
In short: as §1

[35] = biological target: Fuc(a1-2)[GalNAc(a1-3)]Gal(b1-3)GalNAc(b1-3)Gal(a1-4)Gal(b1-4)Glc
In short: as §1

[36] = biological target: Fuc(a1-2)[GalNAc(a1-3)]Gal(b1-3)GlcNAc
In short: as §1

[37] = biological target: Fuc(a1-2)[GalNAc(a1-3)]Gal(b1-3)GlcNAc(b1-2)Man(a1-3)[Fuc(a1-2)[GalNAc(a1-3)]Gal(b1-3)GlcNAc(b1-2)Man(a1-6)]Man(b1-4)GlcNAc(b1-4)GlcNAc
In short: as §1

[38] = biological target: Fuc(a1-2)[GalNAc(a1-3)]Gal(b1-3)GlcNAc(b1-2)Man(a1-3)[Fuc(a1-2)[GalNAc(a1-3)]Gal(b1-3)GlcNAc(b1-2)Man(a1-6)]Man(b1-4)GlcNAc(b1-4)[Fuc(a1-6)]GlcNAc
In short: as §1

B1: MpL2 (Macrolepiota procera) (protein)
chain: MSTQVSSGQTYKITNVKAGTVIDLSGEDNKSIIGYPYHSGKNQQWTFNWTGKAWTLRSASSGSYLGIEGTPADGTRLVAVNDPFEWHIWRDEANENAFRIFVPFTNYNLRLSGYGDTTPGTPVQLWWTWEGLHQTWTIDRP
[1]
  glycan array binding signal (z-score): -0.265
[2]
  glycan array binding signal (z-score): -0.219
[3]
  glycan array binding signal (z-score): -0.188
[4]
  glycan array binding signal (z-score): -0.264
[5]
  glycan array binding signal (z-score): -0.278
[6]
  glycan array binding signal (z-score): -0.135
[7]
  glycan array binding signal (z-score): -0.271
[8]
  glycan array binding signal (z-score): -0.267
[9]
  glycan array binding signal (z-score): -0.257
[10]
  glycan array binding signal (z-score): -0.247
[11]
  glycan array binding signal (z-score): -0.253
[12]
  glycan array binding signal (z-score): -0.259
[13]
  glycan array binding signal (z-score): -0.274
[14]
  glycan array binding signal (z-score): -0.252
[15]
  glycan array binding signal (z-score): -0.24
[16]
  glycan array binding signal (z-score): -0.247
[17]
  glycan array binding signal (z-score): -0.252
[18]
  glycan array binding signal (z-score): -0.218
[19]
  glycan array binding signal (z-score): -0.266
[20]
  glycan array binding signal (z-score): -0.255
[21]
  glycan array binding signal (z-score): -0.222
[22]
  glycan array binding signal (z-score): -0.25
[23]
  glycan array binding signal (z-score): -0.266
[24]
  glycan array binding signal (z-score): -0.244
[25]
  glycan array binding signal (z-score): -0.28
[26]
  glycan array binding signal (z-score): -0.251
[27]
  glycan array binding signal (z-score): -0.254
[28]
  glycan array binding signal (z-score): -0.264
[29]
  glycan array binding signal (z-score): -0.245
[30]
  glycan array binding signal (z-score): -0.227
[31]
  glycan array binding signal (z-score): -0.213
[32]
  glycan array binding signal (z-score): -0.215
[33]
  glycan array binding signal (z-score): -0.253
[34]
  glycan array binding signal (z-score): -0.26
[35]
  glycan array binding signal (z-score): -0.28
[36]
  glycan array binding signal (z-score): -0.242
[37]
  glycan array binding signal (z-score): -0.274
[38]
  glycan array binding signal (z-score): -0.228
